The target of test [1] is T1, Strep-TER (trans-2-enoyl-CoA reductase with an N-terminal Strep-tag) (human) (UniProt Q9NZ01).
T1 sequence: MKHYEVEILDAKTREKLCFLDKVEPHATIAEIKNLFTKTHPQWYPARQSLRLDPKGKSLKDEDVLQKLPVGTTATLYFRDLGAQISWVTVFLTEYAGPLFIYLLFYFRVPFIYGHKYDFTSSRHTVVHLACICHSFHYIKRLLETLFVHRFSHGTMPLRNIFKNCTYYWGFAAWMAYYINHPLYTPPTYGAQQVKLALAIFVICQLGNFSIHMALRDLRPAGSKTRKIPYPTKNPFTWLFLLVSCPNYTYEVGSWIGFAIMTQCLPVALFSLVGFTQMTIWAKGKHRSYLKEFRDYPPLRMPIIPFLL
Description: pull-down; Strep-TER held on Strep-Tactin Sepharose from Triton X-100 extracts of HEK293 cells, Western blotting with anti-SERCA2b mAb; also cells treated with or without 1 uM thapsigargin for 90 min before lysis (less SERCA2b pulled down).

For test [2], the target named is T2, trans-2-enoyl-CoA reductase (TER), endogenous (human (endogenous in HEK293, primary human keratinocytes, HuH-7)) (UniProt Q9NZ01).
T2 sequence: T1 sequence
The test can be described thus: co-IP; Triton X-100 extracts of HEK293 cells, buffer C (20 mM Tris HCl pH 7.5, 150 mM NaCl, 2 mM MgCl2, 1 mM CaCl2); anti-TER pAb or normal rabbit IgG, 4 °C 16 h, Protein G Sepharose; blot with anti-SERCA2b mAb.

The target in test [3] is T2, trans-2-enoyl-CoA reductase (TER), endogenous (human (endogenous in HEK293, primary human keratinocytes, HuH-7)). Description: co-IP; 1% DDM extracts of primary human keratinocytes or HuH-7 cells, buffer C; anti-TER pAb or normal rabbit IgG, 4 °C 16 h, Protein G Sepharose; blot with anti-SERCA2b mAb.
The next test deals with T3, GST-TER-C-term (human) (UniProt Q9NZ01).
T3 sequence: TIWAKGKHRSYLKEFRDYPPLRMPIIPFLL
Description: pull-down; GST proteins (2.8 nmol; 1.9 nmol in Fig. 3D) immobilised on glutathione Sepharose, incubated with Triton X-100 extracts of HEK293 cells expressing 3xHA-SERCA2b, buffer C with 1 mM DTT and 1% Triton X-100, 4 °C 2 h; blot with anti-HA mAb; also cells treated with 1 uM thapsigargin for 90 min (less pulled down by GST-C-term); only the target purified.

The target of the next test is T4, GST-TER-N-term (human) (UniProt Q9NZ01).
T4 sequence: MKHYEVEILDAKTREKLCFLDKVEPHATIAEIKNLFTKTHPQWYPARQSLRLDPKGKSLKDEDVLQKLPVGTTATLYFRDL
Described as above.

The target of test [4] is T5, FLAG–TER ΔN (TER mutant lacking the N-terminal region, 82–308aa) (human) (UniProt Q9NZ01).
T5 sequence: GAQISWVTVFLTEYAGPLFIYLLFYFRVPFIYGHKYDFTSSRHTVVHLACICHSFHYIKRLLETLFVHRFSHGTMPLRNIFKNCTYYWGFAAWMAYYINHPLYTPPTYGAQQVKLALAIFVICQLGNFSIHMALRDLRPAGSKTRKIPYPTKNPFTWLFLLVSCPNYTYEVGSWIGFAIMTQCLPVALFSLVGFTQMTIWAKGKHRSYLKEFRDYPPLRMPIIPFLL
Description: co-IP; 3xHA-SERCA2b and FLAG-tagged proteins co-transfected into HEK293 cells; Triton X-100 extracts, anti-FLAG mAb 4 °C 2 h; blot with anti-HA mAb.

Test [5] concerns the target T6, FLAG–TER-N-term (N-terminal region of TER, 1–81aa) (human) (UniProt Q9NZ01).
T6 sequence: T4 sequence
The description is as above.

In test [6] the target is T7, FLAG–TER ΔC (TER mutant lacking the C-terminal region, 1–278aa) (human) (UniProt Q9NZ01).
T7 sequence: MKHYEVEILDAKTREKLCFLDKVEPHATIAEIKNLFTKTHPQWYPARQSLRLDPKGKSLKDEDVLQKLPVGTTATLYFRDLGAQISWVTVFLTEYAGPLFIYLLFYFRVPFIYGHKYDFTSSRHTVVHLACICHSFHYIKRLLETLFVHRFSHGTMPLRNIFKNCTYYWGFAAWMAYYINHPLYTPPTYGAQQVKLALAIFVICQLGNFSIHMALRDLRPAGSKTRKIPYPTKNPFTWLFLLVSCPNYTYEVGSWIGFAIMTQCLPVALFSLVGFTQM
The description is as above.

Test [7] concerns the target T8, FLAG–TER FL (FLAG-tagged full-length TER), in HEK293 cells (human) (UniProt Q9NZ01).
T8 sequence: T1 sequence
The description is as above.

These are yes or no findings as the source states them, for the method shown. In cells and extracts the contact can be indirect. Some entries that bind do so weakly or less than the wild type. For part of these data: Where a sequence is shown, tags or fusion partners need not be part of it.

With “sarco(endo)plasmic reticulum Ca2+-ATPase 2b (SERCA2b), endogenous (from UniProt P16615-1 1-1042) (enzyme)”, the binding result in test [1], in test [2] and in test [3] was “binds” in each case.

“3xHA-SERCA2b (from UniProt P16615-1 1-1042) (enzyme)”: the binding result in the test with GST-TER-C-term (human) is on record as “binds”; in the test with GST-TER-N-term (human) it was “no binding (tested: 2.8 nmol of GST-TER-N-term on the beads)”; in [4] it was “binds”; in test [5], “no binding”; in [6], “binds weakly”; in [7] it was “binds”.

Values taken from article PMC7949109, “Trans-2-enoyl-CoA reductase limits Ca^2+ accumulation in the endoplasmic reticulum by inhibiting the Ca^2+ pump SERCA2b” (The Journal of Biological Chemistry, 2021).
